The text below walks through data of PMC4336329 (PLoS ONE, 2015).

The campaign covered roughly 310,000 compounds. About 14,000 (4.5%) showed an effect of 50% or more. The effect is printed as a negative number. Some of the results follow.
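Note: peak tail current of the secondary pulse compared with the same well before compound.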

Chain of human ether-à-go-go-related gene (hERG) potassium channel (Q12809 whole entry, looked up): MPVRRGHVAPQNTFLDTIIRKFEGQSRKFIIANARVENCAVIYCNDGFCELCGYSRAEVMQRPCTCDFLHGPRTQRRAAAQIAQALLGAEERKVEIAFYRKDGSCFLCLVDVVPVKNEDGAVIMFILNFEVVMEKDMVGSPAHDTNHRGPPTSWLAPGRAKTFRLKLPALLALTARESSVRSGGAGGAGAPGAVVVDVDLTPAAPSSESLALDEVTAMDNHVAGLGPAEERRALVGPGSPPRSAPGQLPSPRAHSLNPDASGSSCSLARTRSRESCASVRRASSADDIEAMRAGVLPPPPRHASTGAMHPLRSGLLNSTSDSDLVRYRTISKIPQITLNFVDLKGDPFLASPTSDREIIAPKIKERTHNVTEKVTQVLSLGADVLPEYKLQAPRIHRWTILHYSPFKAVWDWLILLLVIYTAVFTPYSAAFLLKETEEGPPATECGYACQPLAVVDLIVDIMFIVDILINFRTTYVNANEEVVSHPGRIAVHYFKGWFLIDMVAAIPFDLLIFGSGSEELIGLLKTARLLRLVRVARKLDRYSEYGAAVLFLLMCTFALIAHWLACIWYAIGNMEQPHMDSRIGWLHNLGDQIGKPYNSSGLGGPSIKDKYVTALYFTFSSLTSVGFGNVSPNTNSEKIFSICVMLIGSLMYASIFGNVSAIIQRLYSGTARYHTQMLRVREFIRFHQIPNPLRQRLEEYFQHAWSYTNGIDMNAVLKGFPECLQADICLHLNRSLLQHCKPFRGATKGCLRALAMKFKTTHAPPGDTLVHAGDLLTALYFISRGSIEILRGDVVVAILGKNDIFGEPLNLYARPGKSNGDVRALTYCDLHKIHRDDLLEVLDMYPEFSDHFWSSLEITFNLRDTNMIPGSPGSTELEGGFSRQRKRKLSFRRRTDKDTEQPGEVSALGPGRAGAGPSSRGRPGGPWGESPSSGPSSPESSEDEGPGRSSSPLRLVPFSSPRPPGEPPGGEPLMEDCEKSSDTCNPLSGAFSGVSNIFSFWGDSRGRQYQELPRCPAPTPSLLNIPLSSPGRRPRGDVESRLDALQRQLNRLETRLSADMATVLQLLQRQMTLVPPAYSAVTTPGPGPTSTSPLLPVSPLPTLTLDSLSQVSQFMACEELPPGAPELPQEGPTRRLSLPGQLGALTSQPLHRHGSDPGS

The test has as its target human ether-à-go-go-related gene (hERG) potassium channel (human, UniProt Q12809). The experiment in a line: primary screen, population patch clamp on CHO cells stably expressing hERG.
`O=C(CSc1ncnc2c1oc1ccccc12)Nc1cccc(F)c1`: the “hERG current change (%, negative = inhibition) at 10uM” value stood at 6.32%.

Consider `Cc1nn(C)c(C)c1NC(=O)c1cc2nc(-c3ccco3)cc(C(F)(F)F)n2n1`, for which the “hERG current change (%, negative = inhibition) at 10uM” value was found to be 15.4%.

With `CCc1nnc(NS(=O)(=O)c2ccc(N3C(=O)c4ccc(C(=O)O)cc4C3=O)cc2)s1`, the “hERG current change (%, negative = inhibition) at 10uM” value was found to be 5.19%.

In the case of `CCN1C(=O)N[C@@H](CCc2ccccc2)C(C(=O)OC)=C1C`, the “hERG current change (%, negative = inhibition) at 10uM” value was -5.41%.

Consider `CCNc1nc2c(c(=O)n(C)c(=O)n2C)n1CCCc1ccccc1`, for which the “hERG current change (%, negative = inhibition) at 10uM” value is recorded as -6.54%.

Consider `N#CCCn1cc(/C=N/O)c(-c2cccc([N+](=O)[O-])c2)n1`, for which the “hERG current change (%, negative = inhibition) at 10uM” value is listed as -11.4%.

Regarding `COc1ccc(C(C(=O)NC2CCCCC2)N(C(=O)c2ccco2)c2ccccc2C(C)=O)cc1OC` (stereo not shown), the “hERG current change (%, negative = inhibition) at 10uM” value came out at 9.15%.

With `CC(C)N(C1=N/C(=C\c2ccco2)C(=O)N1c1ccccc1)C(C)C`, the “hERG current change (%, negative = inhibition) at 10uM” value was found to be 16.2%.

In the case of `COc1ccc2[nH]c(=O)c(CN(CCO)S(=O)(=O)c3ccc4c(c3)OCCO4)cc2c1`, the “hERG current change (%, negative = inhibition) at 10uM” value was -3.37%.

For `COC(=O)C1=CNC=C(C(=O)OC)C1c1ccc(C(=O)OC)cc1`, the “hERG current change (%, negative = inhibition) at 10uM” value is -11.8%.

In the case of `O=C(COC(=O)Cc1ccsc1)NCC1CCCCC1`, the “hERG current change (%, negative = inhibition) at 10uM” value is -6.72%.

In the case of `CCNC(=S)N1CCC(C(N)=O)CC1`, the “hERG current change (%, negative = inhibition) at 10uM” value amounted to 15.6%.

In the case of `O=C(N/N=C1\CCCc2ccccc21)c1ccccc1Cl`, the “hERG current change (%, negative = inhibition) at 10uM” value is recorded as 0.00628%.

As to `CCOCCCNC(=O)c1cccs1`, the “hERG current change (%, negative = inhibition) at 10uM” value is reported as 19.4%.

Turning to `[O-][n+]1c2c(nn1-c1ccccc1Cl)-c1nonc1CC2`, the “hERG current change (%, negative = inhibition) at 10uM” value was -0.263%.

In the case of `C/C(CC(=O)Nc1ccc(N(C)C)cc1)=N\NC(=O)c1ccc([N+](=O)[O-])cc1Cl`, the “hERG current change (%, negative = inhibition) at 10uM” value is -14.5%.

On to `CC(/C=N/NC(=O)c1cc(C(C)(C)C)[nH]n1)=C\c1ccccc1`, for which the “hERG current change (%, negative = inhibition) at 10uM” value is -7.26%.

Consider `O=c1[nH][nH]c(-c2ccccc2O)c1C(C[N+](=O)[O-])c1cccc(Cl)c1` (stereo not shown), for which the “hERG current change (%, negative = inhibition) at 10uM” value turned out to be 15.1%.

As to `CC(c1cccs1)N(C)Cc1nc(CCc2ccccc2)no1` (stereo not shown), the “hERG current change (%, negative = inhibition) at 10uM” value is -10.3%.

Regarding `OCC1(CCOc2ccccc2)CCN(Cc2ccccc2OC(F)F)CC1`, the “hERG current change (%, negative = inhibition) at 10uM” value is listed as -72.5%.

On to `O=C(CSC(=S)N1CCCC1)Nc1ccc(Br)cc1Cl`, for which the “hERG current change (%, negative = inhibition) at 10uM” value was 17.5%.

For the molecule `CC(C)Sc1nc2c(cnn2-c2ccc(Cl)cc2)c(=O)[nH]1`, the “hERG current change (%, negative = inhibition) at 10uM” value came out at 26.2%.

For the molecule `O=C(CC1C(=O)NCCN1C/C=C/c1ccccc1)NCCc1cccnc1` (stereo not shown), the “hERG current change (%, negative = inhibition) at 10uM” value is listed as 11.6%.

Take `CCCCN1C(=O)/C(=C2/Sc3ccc(OC)cc3N2CC)SC1=S`: the “hERG current change (%, negative = inhibition) at 10uM” value is on record as 25.5%.

`CC1CN(C(=S)NC(=O)c2ccccc2)CC(C)O1` (stereo not shown): the “hERG current change (%, negative = inhibition) at 10uM” value is reported as 28.1%.

As to `CC(O)CNCc1ccccc1C(F)(F)F.Cl` (stereo not shown), the “hERG current change (%, negative = inhibition) at 10uM” value was determined as 8.11%.

As for `COCCn1c(C)cc(/C=C2/NC(=O)N(c3cccc(Cl)c3)C2=O)c1C`, the “hERG current change (%, negative = inhibition) at 10uM” value was determined as 2.18%.

Consider `O=C(CSc1nc2ccccc2s1)Nc1cc(C(=O)O)cc(C(=O)O)c1`, for which the “hERG current change (%, negative = inhibition) at 10uM” value is 1.17%.

As to `COc1ccc(S(=O)(=O)N(CC(=O)N2CCOCC2)c2ccc(F)cc2)cc1OC`, the “hERG current change (%, negative = inhibition) at 10uM” value is 10.7%.

For `COc1ccc(NC(=O)CN2C(=O)c3ccccc3Sc3ccc(C(=O)N4CCOCC4)cc32)c(OC)c1`, the “hERG current change (%, negative = inhibition) at 10uM” value is given as -3.05%.

Regarding `CC(=O)Nc1ccc(S(=O)(=O)N2CCc3ccccc3C2)cc1`, the “hERG current change (%, negative = inhibition) at 10uM” value is 3.65%.

Consider `c1cc2c(cc1CN1CCOCC1)OCO2`, for which the “hERG current change (%, negative = inhibition) at 10uM” value is 20.9%.

As to `COc1ccc(NC(=O)COC(=O)Cc2ccc(Br)cc2)cc1`, the “hERG current change (%, negative = inhibition) at 10uM” value is recorded as 10.5%.

For `S=C(NCC1CCCO1)Nc1ccccc1` (stereo not shown), the “hERG current change (%, negative = inhibition) at 10uM” value stood at 25.5%.

Turning to `CCc1nnc(NC(=O)Cn2ccc(C(F)(F)F)n2)s1`, the “hERG current change (%, negative = inhibition) at 10uM” value is on record as 19.2%.

`COc1ccccc1CN1CCN(C(=O)COc2ccccc2)CC1`: the “hERG current change (%, negative = inhibition) at 10uM” value is recorded as -8.47%.

For the molecule `CCC1CCCCN1C(=O)CSc1nc(C)cc(C)n1` (stereo not shown), the “hERG current change (%, negative = inhibition) at 10uM” value is listed as -12.8%.

In the case of `CCCn1c(SCC(=O)NC2CCCCC2C)n[nH]c1=O` (stereo not shown), the “hERG current change (%, negative = inhibition) at 10uM” value was found to be 4.21%.

Take `O=C(CCl)NCc1cc(-c2ccc(Cl)cc2)no1`: the “hERG current change (%, negative = inhibition) at 10uM” value is 22.9%.

As to `COc1ccc(-c2cnn3c(N)c(S(=O)(=O)C(C)(C)C)cnc23)cc1`, the “hERG current change (%, negative = inhibition) at 10uM” value turned out to be 1.47%.

Take `O=C(N/N=C/c1coc2ccccc2c1=O)c1ccncc1`: the “hERG current change (%, negative = inhibition) at 10uM” value turned out to be 18.9%.

For the molecule `Cc1ccc(S(=O)(=O)N2CCC(C(=O)N3CCN(Cc4ccccc4)CC3)CC2)cc1`, the “hERG current change (%, negative = inhibition) at 10uM” value was -26%.

Take `CC(=O)C(=Cc1ccc(C(=O)O)cc1)C(C)=O`: the “hERG current change (%, negative = inhibition) at 10uM” value is given as 21.6%.

`CCOC(=O)N1CCN(C2CC(=O)N(c3ccc(Oc4ccccc4)cc3)C2=O)CC1` (stereo not shown): the “hERG current change (%, negative = inhibition) at 10uM” value is -26.6%.

As to `C/C=C(\C)C(=O)NCCN1C2=NC[C@@H](Cc3ccccc3)N2C[C@H]1Cc1ccc(O)cc1`, the “hERG current change (%, negative = inhibition) at 10uM” value is on record as 12.8%.

Consider `Cc1ccc(OCCn2nc3ccccc3n2)c(C)c1`, for which the “hERG current change (%, negative = inhibition) at 10uM” value is listed as -4.53%.

Consider `CC1CCN(C(=O)COc2ccc3ccccc3c2Br)CC1`, for which the “hERG current change (%, negative = inhibition) at 10uM” value was 11.8%.

Take `COC(=O)[C@H](Cc1ccccc1)NC(=O)NCCC1=CCCCC1`: the “hERG current change (%, negative = inhibition) at 10uM” value is -11.6%.

On to `CCCCOc1ccc(NC(=O)[C@@H]2CCCN2C(=O)C2CCN(S(=O)(=O)c3ccc(C)cc3)CC2)cc1`, for which the “hERG current change (%, negative = inhibition) at 10uM” value was -12.3%.

As for `Nc1cc(=O)[nH]c(SCC(=O)NNC(=O)Cc2ccccc2)n1`, the “hERG current change (%, negative = inhibition) at 10uM” value turned out to be 24.5%.

Consider `CCN(CC)S(=O)(=O)c1ccc(N2CCCCC2)c(NC(=O)/C=C/c2ccc(OC)c(OC)c2)c1`, for which the “hERG current change (%, negative = inhibition) at 10uM” value was -20.7%.

Consider `CCn1c(SCC(=O)NCCc2ccc(OC)c(OC)c2)nc2c1c(=O)n(C)c(=O)n2C`, for which the “hERG current change (%, negative = inhibition) at 10uM” value was -4.63%.

Consider `O=c1c2[nH]c3ccccc3c2nc2n1CCS2`, for which the “hERG current change (%, negative = inhibition) at 10uM” value is given as 3.75%.

As for `CCOC(=O)c1cnc2c(cnn2C)c1NCCCn1ccnc1`, the “hERG current change (%, negative = inhibition) at 10uM” value is on record as -35.9%.

For `CC12CCC(=O)N1C(C(=O)Nc1ccc(F)c(Cl)c1)CS2` (stereo not shown), the “hERG current change (%, negative = inhibition) at 10uM” value is -8.77%.

As to `O=C(CCN1C(=O)/C(=C\c2ccccc2)SC1=S)N1CCCCC1`, the “hERG current change (%, negative = inhibition) at 10uM” value turned out to be 18.4%.

Take `O=C(Nc1nccs1)c1ccc2ccccc2n1`: the “hERG current change (%, negative = inhibition) at 10uM” value was found to be 20.3%.

For `Cc1cc(C)nc(NC(=O)c2ccc(C)c([N+](=O)[O-])c2)n1`, the “hERG current change (%, negative = inhibition) at 10uM” value is -2.76%.
